This sample is rich in variants without activity.
B1: tRNA (parent)
chain: CUCUCGGUAGCCAAGUUGGUUUAAGGCGCAAGACUUUAAUUUAUCACUACGAAAUCUUGAGAUCGGGCGUUCGACUCGCCCCCGGGAGAUUUUUUCCUCGAGCAA

Variants of: B1
Experiment: nonsense suppression (GFP-seq) (ratio to wild type); higher = more function; SUP4oc tRNA, yeast GFP reporter sort-seq
Outline: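 Raffinose/galactose medium with 80 mg/L adenine was used to grow yeast carrying genome-integrated tRNA variants (~3% random-mutation library), RFP, and a galactose-driven GFP ochre reporter. Cells went into GFP/RFP bins, which were Illumina-sequenced, and variants with ≥100 reads and ≥30 cells were scored. Nonsense suppression (GFPSEQ) is the per-bin median GFP/RFP weighted by estimated cell share and expressed relative to the unmutated parent tRNA.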

Nonsense suppression, ≤ 0.026:
CUCUCGGUAGCCAAGUUGGUUUGAGGCGCAAGACUUUAAUUUAUCACUACGAAAUCUUGAGAUCGGGGGUUCGGCUCGCCCCCGGGAGAUUUUUUCCUCGAGCAA [A23G C68G A74G]
CUCUCGGUAGCCAAGUUGGUUUGAGGCGCAAGACUUUAAUUUAUCACUACGAAAUUCUGAGAUCGGGCGUUCGACUCGCCCCCCGGAGAUUUUUUCCUCGAGCAA [A23G C56U U57C G84C]
CUCUCGGUAGCCAAGUUGGUUUCAGGCGCAAGACUUUAAUUUAUCACUACGAAAUCUUGAGAUCGGGCGUUCGACUCAACCCCGGGAGAUUUUUUCCUCGAGCAA [A23C G78A C79A]
CUCUCGGUAGCCAAGUUGGUUUGAGGCGCAAGAGUUUAAUUUAUCACUACGAAAUCUUGAGAUCGUGCGUUCGACUCGCCCCCGGGUGAUUUUUUCCUCGAGCAA [A23G C34G G66U A87U]
CUCUCGGUAGCCAAGUUGGUUUGAGGCGCAAGACUUUAAUUUAUCACUACGAAAUAUUGAGAGCGGGCGUUCGACUCGCCCCCGGGAGAUUUUUUCCUCGAGCAA [A23G C56A U63G]
CUCUCGGUAGCCAAGUUGGUUUCAGGCGCAAGACUUUAAUUUAUCACUACGAAAUCUUGAGAACGGGCGUUCGACUCCCCCCCGGGAGAUUUUUUCCUCGAGCAA [A23C U63A G78C]
CUCUCGGUAGCCAAGUUGGUUUGAGGCGCAGGACUUUAAUUUAUCACUACGAAAUCCGGAGAUCCGGCGUUCGACUCGCCCCCGAGAGAUUUUUUCCUCGAGCAA [A23G A31G U57C U58G G65C G85A]
CUCUCGGUAGCCAAGUUGGUUUCAGGCGCAAGACUUUAAUUUAUCACUACGAAAUCUUGAGAUCGGGCGUUCGACGCGCCCCCGGGAGUUUUUUUCCUCGAGCAA [A23C U76G A89U]
CUCUCGGUAGCCAAGUUGGUUUGAGGCGCAAGACUUUAAUUUAUCACUACGAAAUCUUGUGAUCGGGCGUUCGACUCGCCCCCGGGAGAUUUUUUCCUCGAGCAA [A23G A60U]
CUCUCGGUAGCCAAGUUGGUUUGAGGCGCAAGACUUUAAUUUAUCACUACGAAAUUUUGAGAUCGGGCGUUCGACUCGCCCCCGGGAGAUUUUUUCCUCGAGCAA [A23G C56U]
CUCUCGGUAGCCAAGUUGGUUUGAGGCGCAAGAAUUUAAUUUAUCACUACGAAAUCUUGAGAUCGGGCUUUCGUGUCGCCCCCGGGAGAUUUUUUCCUCGAGCAA [A23G C34A G69U A74U C75G]
CUCUCGGUAGCCAAGUUGGUUUGAGGCGCAAGACUUUAAUUUAUCACUACGAAAUCUUGAGAUCGGGCGUUCGUCUCGCCCCCGGGAGAUUUUUUCCUCGAGCAA [A23G A74U]
CUCUCGGUAGCCAAGUUGGUUUGAGGCGCAAGACUUUAAUUUAUCACUACGAAAUCUUGAGUUCGGGCGUUCGACUCGCCCCCUGGAGAUUUUUUCCUCGAGCAA [A23G A62U G84U]
CUCUCGGUAGCCAAGUUGGUUUGAGGCGCGAGACUUUAAUUUAUCACUACGAAAUCUUGAGAUCGGGCGUUCGACUCGCCCCCGGGAGAUUUUUUCCUCGAGCAA [A23G A30G]
CUCUCGGUAGCCAAGUUGGUUUGAGGCGCAAGACUUUAAUUUAUCACUACGAAAUCUUGAGCUCGGGCGUUCGACUCGCCCCCGGGAGAUUUUUUCCUCGAGCAA [A23G A62C]
CUCUCGGUAGCCAAGUUGGUUUGAGGCGUAAGACUUUAAUUUAUCACUACGAAAUCUUGAGAUCGGGCGUUCGCCUCGCCCCCGGGAGAUUUUUUCCUCGAGCAA [A23G C29U A74C]
CUCUCGGUAGCCAAGUUGGUUUGAGGCGCAAGACUUUAAUUUAUCACUACGAAAUCUUGAGAUCGGGAGUUCGACUCGCCCCCGGGAGAUUUUUUCCUCGAGCAA [A23G C68A]
CUCUCGGUAGCCAAGUUGGUUUCAGGCGCAAGACUUUAAUUUAUCACUACGAAAUCUUGAGAUCGGGCGUUCGACUCGCCCCCGGCAGAUUUUUUCCUCGAGCAA [A23C G86C]
CUCUCGGUAGCCAAGUUGGUUUCAGGCGCAAGACUUUAAUUUAUCACUACGAAAUCUUGAGAUCGGGCGAUCGACUCGCCCCCUGGAGAUUUUUUCCUCGAGCAA [A23C U70A G84U]
CUCUCGGUAGCCAAGUUGGUUUGAGGCGCAAGAAUUUAAUUUAUCACUACGAAAUCUUGAGAUCGGGCGUUCGACUCGCCCCCGGGAGAUUUUUUCCUCGAGCAA [A23G C34A]
CUCUCGGUAGCCAAGUUGGUUUGUGGCGCAAGACUUUAAUUUAUCACUACGAAAUUUUGACAUUGGGCGUUCGACUCGCCCCCGGGAGAUUUUUUCCUCGAGCAA [A23G A24U C56U G61C C64U]
CUCUCGGUAGCCAAGUUGGUUUGAGGAGAAAGACUUUAAUUUAUCACUACGAAAUCUUGAGAUCGGGCGUUCGACUCGCCCCCGGGAGAUUUUUUCCUCGAGCAA [A23G C27A C29A]
CUCUCGGUAGCCAAGUUGGUUUGAGGCGCGAGACUUUAAUUUAUCACUACGAAAUCUUGUGCUCGGGCGUUAGACUCGCCCCCGGGAGAUUUUUUCCUCGAGCAA [A23G A30G A60U A62C C72A]
CUCUCGGUAGCCAAGUUGGUUUGAGGCGCGAGACUUUAAUUUAUCACUACGAAAUCUUGAGAACGGGCGUUCGACUCGCCCCCCGGAGAUUUUUUCCUCGAGCAA [A23G A30G U63A G84C]
CUCUCGGUAGCCAAGUUGGUUUCAGGCGCAAGACUUUAAUUUAUCACUACGAAAUCUUGAGAUCGGGCGUUCGACUCGCCCCCGCGAAAUUUUUUCCUCGAGCAA [A23C G85C G88A]
CUCUCGGUAGCCAAGUUGGUUUGAGGCGCAAGACUUUAAUUUAUCACUACGAAAUCUUGAGAUCGGGCGUUCGACUCGCCCCCGGGAGAUUUUUUCCUCGAGCAA [A23G]
CUCUCGGUAGCCAAGUUGGUUUCAGGCGCAAGACUUUAAUUUAUCACUACGAAAUCUUGAGAUCGGGCGUUCGACUCGCCCCCCGGAGAUUUUUUCCUCGAGCAA [A23C G84C]
CUCUCGGUAGCCAAGUUGGUUUCAGGCGCAAGACUUUAAUUUAUCACUACGAAAUCUUGAGAUCGGGCGUUCGACUCGCCCCCUGGAGAUUUUUUCCUCGAGCAA [A23C G84U]
CUCUCGGUAGCCAAGUUGGUUUCAGGCGCAAGACUUUAAUUUAUCACUACGAAAUCUUGAGAUCGGGCGUUCGACUCGCCCCCAGGAGAUUUUUUCCUCGAGCAA [A23C G84A]
CUCUCGGUAGCCAAGUUGGUUUGAGGCGGAAGACUUUAAUUUAUCACUACGAAAUCUUGAGACCGGGCGUUCGACUCGCCCCCGGGAGAUUUUUUCCUCGAGCAA [A23G C29G U63C]
CUCUCGGUAGCCAAGUUGGUUUCAGGCGCAAGACUUUAAUUUAUCACUACGAAAUCUUGAGAUCCGGCGUUCGACUCGCCCCCGGGAGAUUUUUUCCUCGAGCAA [A23C G65C]
CUCUCGGUAGCCAAGUUGGUUUCAGGCGCAAGACUUUAAUUUAUCACUACGAAAUCUUGAGAUCGGGCGUUCGACUCGCCCCCGGGAAAUUUUUUCCUCGAGCAA [A23C G88A]
CUCUCGGUAGCCAAGUUGGUUUCAGGCGCAAGACUUUAAUUUAUCACUACGAAAUCUUGAGAUCGGGCGUUCGACUCGCCCCCGGGACAUUUUUUCCUCGAGCAA [A23C G88C]
CUCUCGGUAGCCAAGUUGGUUUCAGGCGCAAGACUUUAAUUUAUCACUACGAAAUCUUGAGAUCGGACGUUUGACUCGCCCCCGGGAGAUUUUUUCCUCGAGCAA [A23C G67A C72U]
CUCUCGGUAGCCAAGUUGGUUUGAGGCGCAUGACUUUAAUUUAUCACUACGAAACCUUGAGAUCGGUCGUUAGACUCGCCCCCGGGAGAUUUUUUCCUCGAGCAA [A23G A31U U55C G67U C72A]
CUCUCGGUAGCCAAGUUGGUUUGUGGCCCAAGACUUUAAUUUAUCACUACGAAAUCUUGAGAUCGGGCGUUCGACUCGCCCCCGGGAGAUUUUUUCCUCGAGCAA [A23G A24U G28C]
CUCUCGGUAGCCAAGUUGGUUUGGGGCGCAAGACUUUAAUUUAUCACUACGAAAUCUUGCGAUCGGGCGUUCGACUCGCCCCCGGGAGAUUUUUUCCUCGAGCAA [A23G A24G A60C]
CUCUCGGUAGCCAAGUUGGUUUGAGGCGCAAGAGUUUAAUUUAUCACUACGAAAUGGGGAGAUCGGGCGUUCGACUCGCCCCCGGGAGAUUUUUUCCUCGAGCAA [A23G C34G C56G U57G U58G]
CUCUCGGUAGCCAAGUUGGUUUCAGGCGCAAGACUUUAAUUUAUCACUACGAAAUCUUGAGAUCGGUCGUUCGACUUGCCCCCGGGAGAUUUUUUCCUCGAGCAA [A23C G67U C77U]
CUCUCGGUAGCCAAGUUGGUUUGGGGCGCAAGACUUUAAUUUAUCACUACGAAAUCUUGAGAUCGGGCGUUCGACUCGCCCCCGGGAGAUUUUUUCCUCGAGCAA [A23G A24G]
CUCUCGGUAGCCAAGUUGGUUUGUGGCGCAACACUUUAAUUUAUCACUACGAAAUCUUAAGAUUGGGCGUUCGACUCGCCCCCGGGAGAUUUUUUCCUCGAGCAA [A23G A24U G32C G59A C64U]
CUCUCGGUAGCCAAGUUGGUUUGAGGCGCACGACUUUAAUUUAUCACUACGAAAUCUUUAGAUCGGGCGUUCGACUCGCCCCCGGGAGAUUUUUUCCUCGAGCAA [A23G A31C G59U]
CUCUCGGUAGCCAAGUUGGUUUGAGGCGCAAGUCUUUAAUUUAUCACUACGAAAUCUUGAGAUCGGGCGUUCGACUCGCCCCCGGGGGAUUUUUUCCUCGAGCAA [A23G A33U A87G]
CUCUCGGUAGCCAAGUUGGUUUGAGGUGCAAGACUUUAAUUUAUCACUACGAAAUCUUGAGAUCGGGCGUUCGACUCGCCCCCGGGAAAUUUUUUCCUCGAGCAA [A23G C27U G88A]
CUCUCGGUAGCCAAGUUGGUUUGAGGCGCAAGACUUUAAUUUAUCACUACGAAAUCUUGAGCUCGGGCGUUAGACUCGCGCCCGGGAGAUUUUUUCCUCGAGCAA [A23G A62C C72A C80G]
CUCUCGGUAGCCAAGUUGGUUUGAGGCGCAAGACUUUAAUUUAUCACUACGAAAUCUUGAGCUCGGGCGUUAGACUCGCUCCCGGGAGAUUUUUUCCUCGAGCAA [A23G A62C C72A C80U]
CUCUCGGUAGCCAAGUUGGUUUCAGGCGCAAGACUUUAAUUUAUCACUACGAAAUCUUGAGAUCGGGCGUUCGACGCGCCCCCGGGAGAUUUUUUCCUCGAGCAA [A23C U76G]
CUCUCGGUAGCCAAGUUGGUUUGAGGCGCAAGACUUUAAUUUAUCACUACGAAAUCUUGCGAUCGGGCGUUCGACUCGCCCCCGGUAGAUUUUUUCCUCGAGCAA [A23G A60C G86U]
CUCUCGGUAGCCAAGUUGGUUUGAGGCGCAAGACUUUAAUUUAUCACUACGAAAUGUUGAGAUCAGGCGUGCGACUCGCCCCCGGGAGAUUUUUUCCUCGAGCAA [A23G C56G G65A U71G]
CUCUCGGUAGCCAAGUUGGUUUCAGGCGCAAGACUUUAAUUUAUCACUACGAAAUCUUGAGAUCGAGCGUUCGACUCGCCCCCGGGAGAUUUUUUCCUCGAGCAA [A23C G66A]
CUCUCGGUAGCCAAGUUGGUUUCAGGCGCAAGACUUUAAUUUAUCACUACGAAAUCUUGAGAUCGUGCGUUCGACUCGCCCCCGGGAGAUUUUUUCCUCGAGCAA [A23C G66U]

Nonsense suppression, 0.0446:
CUCUCGGUAGCCAAGUUGGUUUGAGGCGCAGGACUUUAAUUUAUCACUACGAAAUCUUGAGAUCGGGCGUUCGACUCGCCCCCGGGAGAUUUUUUCCUCGAGCAA [A23G A31G]

Nonsense suppression, 0.182:
CUCUCGGUAGCCAAGUUGGUUUGAGGCGCAAGACUUUAAUUUAUCACUACGAAAUCUUGAGAUCGGGUGUUCGACUCGCCCCCGGGAGAUUUUUUCCUCGAGCAA [A23G C68U]

Nonsense suppression, 0.241:
CUCUCGGUAGCCAAGUUGGUUUGAGGCGCAAGACUUUAAUUUAUCACUACGAAAUCUUGCGAUCGGGCGUUCGACUCGCCCCCGGGAGAUUUUUUCCUCGAGCAA [A23G A60C]
